# This is one part of the list. At the low end of the ranking the order means little.
# Target: GST-SBP-SLBP (stem-loop binding protein) (UniProt Q14493)
# Experiment: targeted RNA Bind-n-Seq;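 note: DESeq read counts versus GST-SBP nonspecific binding control pulldown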
# Settings: RBNS binding buffer: 25 mM Tris pH 7.5, 150 mM KCl, 3 mM MgCl2, 0.1% Tween, 0.5 mg/mL BSA, 1 mM DTT; 27 nM protein, 750 pM RNA pool; temperature not stated; high values mean tight binding
row,Sequence,binding signal (log2 fold change)
1,GGUCACGUCUCAAUCAACUCAUUUCCCAGGGAAAACCCUGGCAUUUUCAACAGCUCGCAGUCAAG,0.0753
2,GGUCACGUCUCAAUCAACUCAUCCCCCAGGGAAAACCCUGGUAAACUCAACAGCUCGCAGUCAAG,0.0142
3,GGUCACGUCUCAAUCAACUCAUGUCCAGGAGUUUACUCCUGUUAUUUCAACAGCUCGCAGUCAAG,0.00321
4,GGUCACGUCUCAAUCAACUCAGUUCCCAGGGAAAACCCUGGCAUAUUCAACAGCUCGCAGUCAAG,0.138
5,GGUCACGUCUCAAUCAACUCCCCAGAGGGGGGGAAAACCCCUUUGCCCUCAACAUCAACAGCUCGCAGUCAAG,-0.109
6,GGUCACGUCUCAAUCAACUCUUCUUCAGGAGUUUUCUCCUGUUUAUUCAACAGCUCGCAGUCAAG,0.0534
7,GGUCACGUCUCAAUCAACUCAUUCUCCAGGGAAAACCCUGGUUUUUUCAACAGCUCGCAGUCAAG,-0.133
8,GGUCACGUCUCAAUCAACUCUAGUCCAGGAGUUUUCUCCUGCAAUCUCAACAGCUCGCAGUCAAG,0.0042
9,GGUCACGUCUCAAUCAACUCUAGUCCCAGGGAAACCCCUGGUAAAUUCAACAGCUCGCAGUCAAG,0.097
10,GGUCACGUCUCAAUCAACUCUCACGAGGGGGGGAAAACCCCUUUACCCUCCAUUUCAACAGCUCGCAGUCAAG,-0.507
11,GGUCACGUCUCAAUCAACUCAUAAGAGGGGGGGAAAACCCCUUUGCCCUCGUCAUCAACAGCUCGCAGUCAAG,0.0907
12,GGUCACGUCUCAAUCAACUCAAUCCCAGGAGUUUACUCCUGUAUAUUCAACAGCUCGCAGUCAAG,0.175
13,GGUCACGUCUCAAUCAACUCAAUAGAGGGGGGGAAAACCCCUUUACCCUCCUUAUCAACAGCUCGCAGUCAAG,0.0891
14,GGUCACGUCUCAAUCAACUCUAUUCCCAGGGAAAGCCCUGGCUAUCUCAACAGCUCGCAGUCAAG,0.342
15,GGUCACGUCUCAAUCAACUCUCUCGAGGGGGGGAAAACCCCUUUACCCUCAUCAUCAACAGCUCGCAGUCAAG,-0.152
16,GGUCACGUCUCAAUCAACUCUUUUCCCAGGGAAAGCCCUGGUAAUUUCAACAGCUCGCAGUCAAG,-0.125
17,GGUCACGUCUCAAUCAACUCCAUAGAGGGGGGGAAAACCCCUUUGCCCUCGAAAUCAACAGCUCGCAGUCAAG,0.382
18,GGUCACGUCUCAAUCAACUCUUCUCCCAGGGAAAUCCCUGGUAAUUUCAACAGCUCGCAGUCAAG,0.0285
19,GGUCACGUCUCAAUCAACUCUACUUCAGGAGUUUCCUCCUGCAAUCUCAACAGCUCGCAGUCAAG,0.105
20,GGUCACGUCUCAAUCAACUCUAUUCCCAGGGAAAUCCCUGGCAUAUUCAACAGCUCGCAGUCAAG,-0.00406
21,GGUCACGUCUCAAUCAACUCAGUCUCCAGGGAAAGCCCUGGUAUUUUCAACAGCUCGCAGUCAAG,0.124
22,GGUCACGUCUCAAUCAACUCACUAGAGGGGGGGAAAACCCCUUUACCCUCGUCUUCAACAGCUCGCAGUCAAG,0.00579
23,GGUCACGUCUCAAUCAACUCAACUUCAGGAGUUUUCUCCUGUAUUUUCAACAGCUCGCAGUCAAG,0.0688
24,GGUCACGUCUCAAUCAACUCUUUUUCCAGGGAAACCCCUGGCAUGUUCAACAGCUCGCAGUCAAG,0.104
25,GGUCACGUCUCAAUCAACUCAAUUUCAGGAGUUUGCUCCUGCAUAGUCAACAGCUCGCAGUCAAG,0.0858

row,Sequence,binding signal (log2 fold change)
1,GGUCACGUCUCAAUCAACUCAUCCCCAGGAGUUUACUCCUGUUAACUCAACAGCUCGCAGUCAAG,0.107
2,GGUCACGUCUCAAUCAACUCAAUCUCAGGAGUUUUCUCCUGCAAUCUCAACAGCUCGCAGUCAAG,-0.126
3,GGUCACGUCUCAAUCAACUCUACUCCAGGAGUUUUCUCCUGCUAUGUCAACAGCUCGCAGUCAAG,-0.0567
4,GGUCACGUCUCAAUCAACUCUUAAGAGGGGGGGAAAACCCCUUUGCCCUCAUCCUCAACAGCUCGCAGUCAAG,0.168
5,GGUCACGUCUCAAUCAACUCAUCGCCAGGAGUUUACUCCUGCUAUCUCAACAGCUCGCAGUCAAG,-0.195
6,GGUCACGUCUCAAUCAACUCUUUCUCAGGAGUUUCCUCCUGCAAUCUCAACAGCUCGCAGUCAAG,-0.0158
7,GGUCACGUCUCAAUCAACUCUUUCCCCAGGGAAAUCCCUGGUAUUUUCAACAGCUCGCAGUCAAG,0.032
8,GGUCACGUCUCAAUCAACUCUAUUUCAGGAGUUUGCUCCUGCAUUUUCAACAGCUCGCAGUCAAG,0.0103
9,GGUCACGUCUCAAUCAACUCAUCGUCCAGGGAAAGCCCUGGUUUUCUCAACAGCUCGCAGUCAAG,-0.0969
10,GGUCACGUCUCAAUCAACUCUUCUCCAGGAGUUUUCUCCUGUAUACUCAACAGCUCGCAGUCAAG,0.06
11,GGUCACGUCUCAAUCAACUCUUUCCCCAGGGAAAACCCUGGCUAUCUCAACAGCUCGCAGUCAAG,-0.0586
12,GGUCACGUCUCAAUCAACUCUACUCCCAGGGAAAACCCUGGCAUUUUCAACAGCUCGCAGUCAAG,0.0796
13,GGUCACGUCUCAAUCAACUCAUCUCCCAGGGAAAGCCCUGGCUAACUCAACAGCUCGCAGUCAAG,0.0208
14,GGUCACGUCUCAAUCAACUCUUCUUCAGGAGUUUUCUCCUGUUUUUUCAACAGCUCGCAGUCAAG,-0.157
15,GGUCACGUCUCAAUCAACUCAUCCCCCAGGGAAAUCCCUGGCAUUUUCAACAGCUCGCAGUCAAG,0.134
16,GGUCACGUCUCAAUCAACUCAAACGAGGGGGGGAAAACCCCUUUACCCUCAAUCUCAACAGCUCGCAGUCAAG,-0.0324
17,GGUCACGUCUCAAUCAACUCUAUUCCCAGGGAAACCCCUGGUUAUUUCAACAGCUCGCAGUCAAG,0.0642
18,GGUCACGUCUCAAUCAACUCUACGCCAGGAGUUUUCUCCUGCUAAUUCAACAGCUCGCAGUCAAG,-0.201
19,GGUCACGUCUCAAUCAACUCUUUCCCAGGAGUUUACUCCUGUUUAUUCAACAGCUCGCAGUCAAG,0.127
20,GGUCACGUCUCAAUCAACUCGUUUUCAGGAGUUUACUCCUGCAAUUUCAACAGCUCGCAGUCAAG,0.0543
21,GGUCACGUCUCAAUCAACUCACAAGAGGGGGGGAAAACCCCUUUACCCUCAAAAUCAACAGCUCGCAGUCAAG,0.222
22,GGUCACGUCUCAAUCAACUCAACUCCCAGGGAAAACCCUGGCUAUUUCAACAGCUCGCAGUCAAG,-0.311
23,GGUCACGUCUCAAUCAACUCUUCCCCCAGGGAAAUCCCUGGUAAUUUCAACAGCUCGCAGUCAAG,-0.0808
24,GGUCACGUCUCAAUCAACUCUUCUUCAGGAGUUUCCUCCUGUUAUUUCAACAGCUCGCAGUCAAG,0.0618
25,GGUCACGUCUCAAUCAACUCUUCGCCAGGAGUUUACUCCUGUAUUUUCAACAGCUCGCAGUCAAG,-0.187

row,Sequence,binding signal (log2 fold change)
1,GGUCACGUCUCAAUCAACUCUUCGCCAGGAGUUUUCUCCUGUUAAUUCAACAGCUCGCAGUCAAG,-0.0225
2,GGUCACGUCUCAAUCAACUCCACAGAGGGGGGGAAAACCCCUUUGCCCUCCAAAUCAACAGCUCGCAGUCAAG,-0.173
3,GGUCACGUCUCAAUCAACUCUUUCUCCAGGGAAAUCCCUGGUAAUUUCAACAGCUCGCAGUCAAG,-0.1
4,GGUCACGUCUCAAUCAACUCCUCAGAGGGGGGGAAAACCCCUUUACCCUCAAUAUCAACAGCUCGCAGUCAAG,0.394
5,GGUCACGUCUCAAUCAACUCAAUCGAGGGGGGGAAAACCCCUUUACCCUCAAUCUCAACAGCUCGCAGUCAAG,-0.343
6,GGUCACGUCUCAAUCAACUCAUCGUCCAGGGAAAACCCUGGUAAUUUCAACAGCUCGCAGUCAAG,0.159
7,GGUCACGUCUCAAUCAACUCUUCCCCAGGAGUUUUCUCCUGCAUACUCAACAGCUCGCAGUCAAG,0.165
8,GGUCACGUCUCAAUCAACUCUUCUCCCAGGGAAAUCCCUGGUAUAUUCAACAGCUCGCAGUCAAG,0.027
9,GGUCACGUCUCAAUCAACUCAAUCUCCAGGGAAAGCCCUGGCUUUCUCAACAGCUCGCAGUCAAG,0.0528
10,GGUCACGUCUCAAUCAACUCUUCUUCAGGAGUUUACUCCUGUAAUGUCAACAGCUCGCAGUCAAG,-0.168
11,GGUCACGUCUCAAUCAACUCAUCCUCCAGGGAAAGCCCUGGUUAUUUCAACAGCUCGCAGUCAAG,-0.0676
12,GGUCACGUCUCAAUCAACUCUAUUCCAGGAGUUUACUCCUGCAAACUCAACAGCUCGCAGUCAAG,0.117
13,GGUCACGUCUCAAUCAACUCAUUUUCAGGAGUUUGCUCCUGUUAUUUCAACAGCUCGCAGUCAAG,-0.0335
14,GGUCACGUCUCAAUCAACUCCCCAGAGGGGGGGAAAACCCCUUUACCCUCAUAAUCAACAGCUCGCAGUCAAG,0.276
15,GGUCACGUCUCAAUCAACUCCAACGAGGGGGGGAAAACCCCUUUACCCUCAUCUUCAACAGCUCGCAGUCAAG,-0.454
16,GGUCACGUCUCAAUCAACUCUUUUUCAGGAGUUUUCUCCUGUUAUCUCAACAGCUCGCAGUCAAG,0.0693
17,GGUCACGUCUCAAUCAACUCAUUUCCCAGGGAAAGCCCUGGCAUACUCAACAGCUCGCAGUCAAG,-0.277
18,GGUCACGUCUCAAUCAACUCUUCCCCCAGGGAAAGCCCUGGCAAUCUCAACAGCUCGCAGUCAAG,0.0922
19,GGUCACGUCUCAAUCAACUCUUUCCCAGGAGUUUUCUCCUGCAUAUUCAACAGCUCGCAGUCAAG,0.04
20,GGUCACGUCUCAAUCAACUCUAUUCCCAGGGAAACCCCUGGUAUUCUCAACAGCUCGCAGUCAAG,0.172
21,GGUCACGUCUCAAUCAACUCCUAAGAGGGGGGGAAAACCCCUUUGCCCUCAUAAUCAACAGCUCGCAGUCAAG,0.118
22,GGUCACGUCUCAAUCAACUCUUUAGAGGGGGGGAAAACCCCUUUGCCCUCACAUUCAACAGCUCGCAGUCAAG,0.0244
23,GGUCACGUCUCAAUCAACUCAACGGAGGGGGGGAAAACCCCUUUACCCUCAAUUUCAACAGCUCGCAGUCAAG,-0.0687
24,GGUCACGUCUCAAUCAACUCAUUUUCAGGAGUUUCCUCCUGUUAUUUCAACAGCUCGCAGUCAAG,-0.0345
